# The whole screen tested about 390,000 compounds, of which about 930 (0.24%) were called active. Inconclusive results, whose numbers are uncertain, are shown with a selection of clear calls. The call rests on the fitted dose curve; in most records, active means well fitted activation curve with a large enough effect; inconclusive means small, poorly fitted or top-dose-only effect; inactive means no such curve, though single readings can be large or run the other way. A potency beside an inconclusive call is a rough fit, not a confirmed value.
# Assay: qHTS for Suppressors of FUS Proteinopathy: Primary screen using FUS-linked yeast assay; further: nearly all actives have a fitted effect of over 55% in size;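 on growth rescue (activation): plate controls were DMSO vehicle for no effect and reference control for full effect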
# Conditions: S. cerevisiae FUS-expressing, OD600, 24 h; Potency: growth rescue; growth rescue (activation): at 76.6 µM (top of the series)
# Procedure, shortened: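 Absorbance at 600 nm, taken 24hr after compound addition, measured rescue of FUS-yeast growth at 30C. Induction used 2% galactose with seeding at OD 0.005. Controls: CP55940 from 92uM final, DMSO only.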
# Potency means the concentration at half of the fitted maximal effect; tags describe the fitted curve by direction and shape.
SMILES,Potency,growth rescue (activation)
CCN(c1ccccc1)S(=O)(=O)c1ccc(C(=O)NC2CCCCC2)cc1,"inconclusive: 17.8 µM [activator, single point]",
O=C(CC1NCCNC1=O)OCc1ccccc1 (stereo not given),"inconclusive: 3.98 µM [activator, single point]",
COc1cccc(NC(=O)C2(C)CCN2C(=O)Cc2cccc3ccccc23)c1 (stereo not given),"inconclusive: 22.4 µM [activator, partial curve]",
Cc1ccn2c(Nc3ccc4c(c3)OCO4)c(-c3ccc(N(C)C)cc3)nc2c1,"inconclusive: 25.1 µM [activator, partial curve, poor fit]",
O=c1c2cn[nH]c2nc(SCc2cccc(Br)c2)n1-c1ccc(Cl)cc1,active: 35.5 µM,
CCCCOCCCNC(=O)C[C@@H]1C[C@@]2(C(=O)OCC)CCCC=C2N(Cc2ccc3c(c2)OCO3)C1=O,"inconclusive: 10 µM [activator, full curve, poor fit]",
O=C(O)c1cc(N/N=C/c2ccc(-c3ccccc3)cc2)ccc1Cl,inactive,
COc1ccc(C2CC(=O)N(Cc3ccc(F)cc3)c3ccccc3S2)cc1 (stereo not given),inactive,
COc1cccc(NC(=O)Cn2c(=O)n(-c3ccc(Cl)cc3)c(=O)c3oc4ccccc4c32)c1,inactive,
COc1cc(C(=O)Nc2ccc3[nH]c(=O)sc3c2)cc(OC)c1OC,inactive,
CCOC(=O)N1CCN(C(=O)CSc2cc(C)nc3c(-c4ccccc4OC)c(C)nn23)CC1,"inconclusive: 14.1 µM [activator, partial curve]",
CC1=C(C(=O)Nc2cccnc2)C(c2cccc(F)c2)n2nc(SCc3ccccc3)nc2N1 (stereo not given),inactive,
NC(=O)N/N=C1\c2ccccc2-c2c(C(N)=O)cccc21,,inconclusive: -74.6% [activator]
COc1cc2nc(/C=C/c3cc(OC)c(OC)c(OC)c3)sc2cc1SC,"inconclusive: 44.7 µM [activator, single point]",
COc1ccc([C@H]2C[C@@H](O)[C@H](n3cc(COC(=O)c4ccccc4)nn3)CN2C(=O)c2cccs2)cc1,"inconclusive: 31.6 µM [activator, partial curve, poor fit]",
O=C(NC(=S)NC1CCN(Cc2ccccc2)CC1)c1ccc(F)cc1,inactive,
COc1nnc(-c2ccc(N3CCCCC3)c(NC(C)=O)c2)c2ccccc12,inactive,
CCCN(CCC)S(=O)(=O)c1ccc(NC(=O)Cc2cccs2)cc1,"inconclusive: 15.8 µM [activator, partial curve]",
Cc1cc(F)ccc1NCc1ccccc1[N+](=O)[O-],inactive,
COC(=O)[C@]12CCCCC=C1N(Cc1ccc3c(c1)OCO3)C(=O)[C@H](CC(=O)N1CCN(C(=O)C3CC3)CC1)C2,"inconclusive: 20 µM [activator, single point]",
Cc1cc(C)n2nc(C(=O)NCc3ccccc3)nc2n1,inactive,
Cc1ccc2c(CN3CCN(CCO)CC3)cc(=O)oc2c1C,"inconclusive: 2.51 µM [activator, full curve]",
Cc1cccc(N2CCN(C(=O)Cc3c(C(=O)O)[nH]c4ccc(Cl)cc34)CC2)c1C,"inconclusive: 39.8 µM [activator, single point]",

SMILES,Potency,growth rescue (activation)
Cc1sc2ncn(CC(=O)N3CCN(c4ccc(F)cc4)CC3)c(=O)c2c1S(=O)(=O)N1CCCCC1,"inconclusive: 15.8 µM [activator, partial curve]",
CN(C)Cc1c(O)ccc2ccccc12,inactive,
COc1ccc(NC(=O)C(C)N2CCN(C)CC2)cc1 (stereo not given),inactive,
Cc1ccc(-c2cc(C(=O)N/N=C/c3c(C)nn(-c4ccccc4)c3C)n[nH]2)s1,"inconclusive: 50.1 µM [activator, single point]",
COc1cccc(NC(=O)CSc2nc(=O)n(Cc3ccco3)c3c2CCC3)c1,"inconclusive: 28.2 µM [activator, single point]",
Cn1ccc2c(/C=C/c3ccc(F)cc3)cc3c(c21)C1CCC3O1 (stereo not given),inactive,
COc1ccc(CNc2ccc3c(c2)nc(C)n3C)cc1,"inconclusive: 11.2 µM [activator, single point]",
COc1ccccc1NC(=O)Nc1ccnn1Cc1cccs1,inactive,
c1ccc(-c2ccc(CNc3nc(-c4ccccn4)nnc3-c3ccccc3)cc2)cc1,active: 20 µM,
Cc1cc2cc(C(c3nnnn3Cc3ccco3)N3CCc4ccccc43)c(=O)[nH]c2cc1C (stereo not given),"inconclusive: 14.1 µM [activator, partial curve, poor fit]",
O=c1c2ccccc2ncn1CCCSc1ccccc1,inactive,
COc1ccc2c(c1)CCC1=C2NC(=S)NC1c1ccc(N(C)C)cc1 (stereo not given),"inconclusive: 20 µM [activator, partial curve]",
Cc1ccc(-c2nc(N/N=C/c3ccncc3)c3ccccc3n2)cc1,"inconclusive: 1 µM [activator, full curve, poor fit]",
CC1=C(C(=O)N(C)C)CC(CC(=O)NC(c2ccccc2)c2ccccc2)C(=O)N1Cc1ccc(C(C)(C)C)cc1 (stereo not given),"inconclusive: 39.8 µM [activator, single point]",
Cc1ccc2nc(-c3ccc(NS(=O)(=O)c4c(C)n(C)c(=O)n(C)c4=O)cc3)sc2c1,"inconclusive: 31.6 µM [activator, single point]",
COc1ccc(CCNC(=O)C2CCN(Cc3nc(-c4ccccc4F)oc3C)CC2)cc1OC,"inconclusive: 25.1 µM [activator, partial curve, poor fit]",
COc1ccccc1C(=O)Nc1nnc(SCc2cc(=O)c3cc(Cl)ccc3[nH]2)s1,inactive,
COc1ccc(OC)c(NC(=O)Cn2ccc3ccccc3c2=O)c1,inactive,
CC1(C(=O)NCc2ccc(C(F)(F)F)cc2)CCN1Cc1ccc(-c2ccccc2)o1 (stereo not given),"inconclusive: 15.8 µM [activator, partial curve]",
COc1ccc(NC(=O)Nc2ccccc2C(=O)N2CCCC2)cc1OC,inactive,
COc1cc(NC(=O)NC2CCCCN(Cc3cccc(Cl)c3)C2=O)cc(OC)c1 (stereo not given),inactive,
Cc1ccc(C)c(N2CCN(C(=O)C3CCCN(S(=O)(=O)c4cccc5nsnc45)C3)CC2)c1 (stereo not given),"inconclusive: 8.91 µM [activator, partial curve, poor fit]",
